For 22 molecules, binding signal results are on record in article PMC12136788.

First the molecules themselves.
B1: chr3:17009782:17009883:+|CDS|ENSG00000154822|unk|total|mutant (ssRNA)
RNA: GGGAGUUCUACAGUCCGACGAUCAAUUCAAUGGUUGAGGGUUCAGAACUCAAAAAGGUUCGCUCCAACUCCCGAAUUUAUCACCGGUACUUUUUACUGGAUGCUGACAUGCAGAGCCUAAGGUGGGAGCCAUCUAAGAAGGAUCAACAGAGGAUUGAGCAUCA
B2: chr15:52122579:52122653:-|3pUTR|ENSG00000069966|msi1_unk|total|mutant (ssRNA)
RNA: GGGAGUUCUACAGUCCGACGAUCUCUUCACAUGUAAACCGAUAUUACUUCCCGAGGAGCUCCGAGUUUAUUGCAGUGCCGCUCCGGGGAGCAACCCAUGGCUCACAGGUCACUAAGCGUCUCCAAUAUGACUAUUAAAACUGUCAACAGAGGAUUGAGCAUCA
B3: chr8:80499649:80499757:+|CDS|ENSG00000205189|unk|total|mutant (ssRNA)
RNA: GGGAGUUCUACAGUCCGACGAUCUAAGACUUUAUAUUGCUUUUCAAACAAAGAAAGCCCUAACCAAAACAAUACUACCCACUCCGAUAUUGCUGCAGUUCAAGGUUUUUCAGUCAUCUUGGACUUCUUGUAUUCUGGUAACCUCAACAGAGGAUUGAGCAUCA
B4: ENSG00000107863:be:win_4601|CDS|ENSG00000107863|bound_else_gene|NA|bound_elsewhere_windowed (ssRNA)
RNA: GGGAGUUCUACAGUCCGACGAUCAGAAGUCCUCCCACCUUGAAGAGACAGGCUCUGACUCUGGCACUUUGCUCAGCACGUCUUCCCAGGCCUCCCUGGCAAGGUUUUCCAUGAAGAAAUCAACCAGUCCAGAAACGAAACAUACAACAGAGGAUUGAGCAUCA
B5: chr2:206311781:206311882:+|3pUTR|ENSG00000204186|unk|FALSE|unique (ssRNA)
RNA: GGGAGUUCUACAGUCCGACGAUCUAGUGUUUAGAGUCCUUUCAUUUUAAGAUUCAGAAACAGCCUUUGUCCAACAUUUUCUGUAGAAGAACUUCAUCUUAAUUUAUGUCACAAAAUAAUUUAGCACCGUAUAUAGAAUUUUGUCAACAGAGGAUUGAGCAUCA
B6: chr7:105566322:105567453:-|three_prime_utr|ENSG00000185055|control|control|control (ssRNA)
RNA: GGGAGUUCUACAGUCCGACGAUCAGUUUCAUUAAUUCAGAAUUUCAUCAUAUAACUUGAAAUCCAAUUGGCUUCCUCUUUCUUAGAAACAAAAACCAAAGAAACCUUUUUCUGAAAGACAUUAUUUUCCAGUAUUAGGCCAAUCAACAGAGGAUUGAGCAUCA
B7: chr10:11763304:11763405:+|CDS|ENSG00000134463|unk|total|mutant (ssRNA)
RNA: GGGAGUUCUACAGUCCGACGAUCGGGCUGCUCCGCAAGGUGGUGCCAGAGGCGGAGCUGCAGGAGGAGACCAUGCGGAUCGCCCGGAAGAUCGCAUCGCUGAGCCGUCCGGUGGUGUCCCUGGGCAAAGCCACCUUCUACAAGCAACAGAGGAUUGAGCAUCA
B8: chr17:82078764:82078865:-|3pUTR|ENSG00000169710|msi1_unk|FALSE|overlapping (ssRNA)
RNA: GGGAGUUCUACAGUCCGACGAUCCCGUGGGGUCUGCGCUUGGUCUUUCUGUGCUUGGAUUUGCAUAUUUAUUGCAUUGCUGGUAGAGACCCCCAGGCCUGUCCACCCUGCCAAGACUCCUCAGGCAGCGUGUGGGUCCCGCACCAACAGAGGAUUGAGCAUCA
B9: chr1:236581285:236581397:-|CDS|ENSG00000119285|unk|total|mutant (ssRNA)
RNA: GGGAGUUCUACAGUCCGACGAUCCAUCCCGAAGAUGUUUUUCAGUUAUUCAAGUUCUGUUCUGUUUUAUGGACCUAUGGUUCCCGCCUUUCAAAUCCACUAAACUGCAGUGUGAAAACAGUGCUGCAGACUCAAGCUCUUUAUCAACAGAGGAUUGAGCAUCA
B10: chr6:122432834:122432935:+|3pUTR|ENSG00000025156|msi1|total|mutant (ssRNA)
RNA: GGGAGUUCUACAGUCCGACGAUCAUAUACCGAAAGAUCGGGGGUGGGAUGGGAUGGAGUGAGCCCCAUCCAGUCCGUUGGACCCGUUUUAAAUAAAGGUUUUCCGGUUUGUGUUUUUUUGAACCAUACUGUUCCGUAAAAUAACAACAGAGGAUUGAGCAUCA
B11: chr2:39051162:39051270:-|CDS|ENSG00000115904|unk|total|mutant (ssRNA)
RNA: GGGAGUUCUACAGUCCGACGAUCAAAUAUAUUCCGUCGCACCGCCGAUAUACAUGAACUCCGUGUAAAGUUACUGGGCCAUACCGAAGAUACAGCCGAAAUGACAGAUGAAGGCAGUCCCCAUCCACCCGCCGGAAGCUGCUUCAACAGAGGAUUGAGCAUCA
B12: chr4:70820284:70820384:-|3pUTR|ENSG00000132463|msi1_unk|total|mutant (ssRNA)
RNA: GGGAGUUCUACAGUCCGACGAUCUGAACUGGUAUGGUUUGGCAGAACCGUUUUAAAUUUUGCUGUAUUUGAUUACUCCGAGACCGGAAUUUUUAAAAAUCAAAACAAAAAAUACCACAGCUCCGUGUAAAUGACAAUUUGGCGCAACAGAGGAUUGAGCAUCA
B13: chr7:7573188:7573293:+|CDS|ENSG00000164654|unk|FALSE|bound_elsewhere (ssRNA)
RNA: GGGAGUUCUACAGUCCGACGAUCCCAUAUUUCCACGAUCGUGUUGCUUCCUUCUAUGAAGGUCAGGUUGCAAUAUGGGAUCUUAGAAAAUUUGAGAAGCCAGUUUUGACAUUGACUGAGCAACCAAAACCCUUAACAAAAGUACAACAGAGGAUUGAGCAUCA
B14: chr17:47844907:47847298:-|three_prime_utr|ENSG00000189120|control|control|control (ssRNA)
RNA: GGGAGUUCUACAGUCCGACGAUCAAGGUGCGUAUUUAUUCAGGGAGGAGGAAAAGUGGUGCAGGGACAGGGAGAUGGGGCGCUAGGGGUUCUUAGUCUCUGGGGCUACUAGGCAGGAUGAAUUUGACUGGGUCGGUAGGAGCUCAACAGAGGAUUGAGCAUCA
B15: chr2:216675642:216675774:-|3pUTR|ENSG00000115461|msi1|FALSE|unique (ssRNA)
RNA: GGGAGUUCUACAGUCCGACGAUCUUUUUCUUUGUUUUUUUCUUUCUUCCUUUCUUUCAAAGGUUUGCAUUAACUUUUCAAAGUAGUUCCUAUAGGGGCAUUGAGGAGCUUCCUCAUUCUGGGAAAACUGAGAAAACCCAUAUUCAACAGAGGAUUGAGCAUCA
B16: chr17:48133441:48133816:-|three_prime_utr|ENSG00000141293|control|control|control (ssRNA)
RNA: GGGAGUUCUACAGUCCGACGAUCAGCUACCAGUAAGACAAGUGGGAAGAGGCACGUUCAUCAAACCUGUUACUAAACCAGCCUAGUCAUAGCUCAUCCCCAUCUCUAAAUGUGUCCACACAACCACAUCUGCCUUUUCCACAACAACAGAGGAUUGAGCAUCA
B17: chr1:235977234:235977335:-|3pUTR|ENSG00000116962|msi1|FALSE|unique (ssRNA)
RNA: GGGAGUUCUACAGUCCGACGAUCGUCUAAGACCCCCAUUAUAAUAUUCAUGCGCUGCUUUUUCAUCAAAACCUACCCUGUCCUAGAGAUCUAUGGGCAUUUGGUGGAUGAUAAUGAGCAGCCCCUCCCAGAUAGAAUGUCAAUCAACAGAGGAUUGAGCAUCA
B18: chr14:75134619:75134720:-|3pUTR|ENSG00000170348|msi1|total|mutant (ssRNA)
RNA: GGGAGUUCUACAGUCCGACGAUCAACAAGUCAAUGAGGGACUUCUUUUUAAUUUGGCCGGAUUUUGACUGGUUUUGCAACAACCGGUCUAUUAUCCGAGUCACCUAUGACAAAAAACCGGGGUUACCCCGAUAAUGCCAAAGUCAACAGAGGAUUGAGCAUCA
B19: chr12:39370042:39370220:-|CDS|ENSG00000139116|unk|total|mutant (ssRNA)
RNA: GGGAGUUCUACAGUCCGACGAUCUACUUUUGACUAUGUAUUUGACAUUGACUCCCAGCAAGAGCAGAUCUACAUUCAAUGUACCGAAAAACUAAUUGAAGGUUGCUUUGAAGGAUACAAUGCUACAGUUUUUGCUUAUGGACACAACAGAGGAUUGAGCAUCA
B20: chr11:4681751:4682711:-|CDS|ENSG00000167332|control|control|control (ssRNA)
RNA: GGGAGUUCUACAGUCCGACGAUCUUAUCCACAUCCACCAUGCCUAAGAUCCUUGCCCUUUUCUGGUUUGAUUCCCGAGAGAUUAGCUUUGAGGCCUGUCUUACCCAGAUGUUCUUUAUUCAUGCCCUCUCAGCCAUUGAAUCCCAACAGAGGAUUGAGCAUCA
B21: chr16:14644374:14644495:+|CDS|ENSG00000103429|unk|FALSE|unique (ssRNA)
RNA: GGGAGUUCUACAGUCCGACGAUCAACACAAUGGACCUUGAGAGAGAUGAACCUCUCAAAAGCACCGGCCCUCAGAUUUCUGUUAGUGAAUUUUCUUGCCACUGCUGCUACGACAUCCUGGUUAACCCCACCACCUUGAACUGUCAACAGAGGAUUGAGCAUCA
B22: ENSG00000198589:be:win_2401|CDS|ENSG00000198589|bound_else_gene|NA|bound_elsewhere_windowed (ssRNA)
RNA: GGGAGUUCUACAGUCCGACGAUCCAUAAACAGCAUCCAGAUCCUGAUUCUUCAGUGAAGAUACAAAACCCUCAGAUACUAAAAGUAAUUGCGACCCUACUUCGAAAUUCUCCCCAGUGCCCAGAGAGCAUGGAGGUUCGCAGACAACAGAGGAUUGAGCAUCA

This is one part of the list.

The experiment addresses MSI1 full-length (mouse, UniProt Q61474 1-362). The experiment can be described thus: nsRBNS (natural sequence RNA bind-n-seq); RBNS binding buffer (assumed for nsRBNS): 25 mM Tris pH 7.5, 150 mM KCl, 3 mM MgCl2, 0.01% Triton X-100, 500 ug/ml BSA, 20 U/ml SUPERase-In, 4 C; UNK is unkempt and MSI1 is Musashi-1; names of the RNAs are library labels; protein concentration not given here; high values mean tight binding.
UniProt Q61474, sequence (Q61474 whole entry): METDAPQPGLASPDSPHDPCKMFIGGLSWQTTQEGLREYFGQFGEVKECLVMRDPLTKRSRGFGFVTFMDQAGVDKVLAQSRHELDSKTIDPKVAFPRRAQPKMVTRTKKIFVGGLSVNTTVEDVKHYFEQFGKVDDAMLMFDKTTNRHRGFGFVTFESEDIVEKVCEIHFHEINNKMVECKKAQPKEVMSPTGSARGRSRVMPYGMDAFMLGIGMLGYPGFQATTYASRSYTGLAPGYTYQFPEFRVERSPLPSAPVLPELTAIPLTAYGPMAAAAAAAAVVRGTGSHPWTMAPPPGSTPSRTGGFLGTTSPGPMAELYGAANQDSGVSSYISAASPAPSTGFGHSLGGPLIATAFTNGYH
Turning to B1, the binding signal amounted to 0.37 enrichment R.
The same measure for B2: 0.405 enrichment R; for B3: 0.402 enrichment R; for B4: 0.414 enrichment R.
Molecule B5 had a binding signal of 16.7 enrichment R.
As for B6, the figure is 2.42 enrichment R.
The same measure for B7: 0.405 enrichment R.
As for B8, the figure is 0.397 enrichment R.
In turn, B9 came in with a binding signal of 0.346 enrichment R.
As for B10, the figure is 0.34 enrichment R.
The same measure for B11: 0.566 enrichment R.
Take B12: the binding signal stood at 0.263 enrichment R.
As for B13, the figure is 0.169 enrichment R.
As for B14, the figure is 1.3 enrichment R; as for B15, 0.346 enrichment R.
B16: the binding signal turned out to be 2.27 enrichment R.
The same measure for B17: 1.05 enrichment R; for B18: 0.165 enrichment R.
As for B19, the binding signal came to 0.391 enrichment R.
On to B20, for which the binding signal came out at 0.511 enrichment R.
The same measure for B21: 0.545 enrichment R.
Take B22: the binding signal stood at 0.42 enrichment R.
